Data from patent US9603820B2, “Ornithine aminotransferase inhibition with GABA analogues for treatment of hepatocellular carcinoma” (Northwestern University, priority 2014, dated 2017).

Experiments:
[1] = target: T1, ornithine aminotransferase (OAT) (Homo sapiens, UniProt P04181); assay: Continuous coupled OAT assay (PYCR1/NADH), inhibition of OAT; assay type: biochemical; settings: FIG. 2
T1 sequence (P04181 36-439 limits assumed): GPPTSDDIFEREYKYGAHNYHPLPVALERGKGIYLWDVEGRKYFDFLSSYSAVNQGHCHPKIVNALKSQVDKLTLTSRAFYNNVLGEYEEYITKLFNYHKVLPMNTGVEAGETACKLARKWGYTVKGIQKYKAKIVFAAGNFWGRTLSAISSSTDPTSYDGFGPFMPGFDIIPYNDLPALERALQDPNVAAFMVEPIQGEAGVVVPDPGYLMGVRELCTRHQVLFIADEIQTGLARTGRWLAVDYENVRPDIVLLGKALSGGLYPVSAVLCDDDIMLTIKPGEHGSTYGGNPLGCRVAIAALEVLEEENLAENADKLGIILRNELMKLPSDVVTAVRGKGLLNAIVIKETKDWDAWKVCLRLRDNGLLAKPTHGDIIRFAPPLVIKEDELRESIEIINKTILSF
Source text: With these two assays in hand, the activity of a variety of compounds made previously as potential inhibitors of GABA-AT were investigated.

[2] = target: T1, ornithine aminotransferase (OAT); assay: Time-dependent inactivation of OAT and dialysis of the inactivated enzyme; assay type: biochemical
Procedure: OAT activity assays were carried out using as follows.
OAT incubated without the inactivator serves as a control. After 24 h, the enzyme solutions are transferred to a D-Tube™ Mini dialyzer and exhaustively dialyzed against the buffer (100 mM pyrophosphate buffer containing 0.1 mM alpha-ketoglutarate and 0.1 mM PLP, pH 8.0) at 4° C. protected from light. The dialysis buffer is exchanged three times every 4 h and left overnight. After 48 h of dialysis, the remaining OAT activity in each of the solutions is assayed.
For the determination of KI and kinact values, the natural logarithm of the percentage of remaining OAT activity is plotted against the pre-incubation time at each inhibitor concentration to obtain the kobs (slope) value for each concentration. The kobs is the rate constant describing the inactivation at each inhibitor concentration. kobs is re-plotted against the inhibitor concentration using nonlinear regression analysis (Graph-Pad Prism 6; GraphPad Software Inc.). kinact and the KI were estimated from the equation below: […], where kinact is the maximal rate of inactivation, KI is the inhibitor concentration required for half-maximal inactivation, and [I] is the pre-incubation concentration of inhibitor. […] The initial rate constants for the inactivation at various concentrations of the two compounds are determined using nonlinear regression analysis.

glutamate decarboxylase = assay: Inhibition of glutamate decarboxylase; assay type: biochemical; settings: even at 6 mM concentration
GABAB = GABAB (Homo sapiens, UniProt Q9UBS5); assay: Binding to GABAB
[3] = Metabolic stability in cryopreserved human hepatocytes; assay type: in vitro ADME; settings: for loss of CPP-115 during incubation: 5 μM
Procedure: The metabolic stability of CPP-115 was evaluated in cryopreserved human hepatocytes using a LC/MS/MS method. Cryopreserved human hepatocytes were prepared from a pool of 3 individuals (1,000,000 cells/mL) and incubated in triplicate with CPP-115 (5 μM) for 0, 10, 60, 120, and 240 minutes.

Effect on respiration = settings: in vivo
[4] = Acute toxicity, maximum tolerated dose (Part A), single i.p. injection; assay type: in vivo, Wistar Albino rats
Procedure: A maximum tolerated dose (Part A) and dose range finding (Part B) study of CPP-115 was conducted in Wistar Albino rats. In Part A of the study, 17 male and 18 female rats, placed in 8 treatment groups, received a single i.p. injection of CPP-115 at a dose of 0.5, 5, 30, 50, 75, 100, 150, or 300 mg/kg.

[5] = rat, in vivo
Procedure: At the conclusion of dosing, rats entered a wash-out period (5-7 days) after which electroretinograms (ERGs) for scotopic (rod), mesopic (standard combined), photopic (cone), and 10 Hz and 15 Hz3 flicker ERG responses were collected for both eyes from each rat.
Quantitative histological examinations of retinas of the rats from this study were also carried out. Cone receptors were stained with a cone arrestin antibody and counterstained with a red stain for visualization and counting. Retinal sections were also stained with H&E and the ONL nuclei counts and ONL thicknesses were determined.

hBGT-1 = target: T2, hBGT-1 (Homo sapiens, UniProt P48065); assay: [3H]GABA uptake in transfected tsA201 cells; assay type: cell-based; settings: hBGT-1, 37° C., 3 minutes
T2 construct: expressed in transfected cells; host or cells: tsA201 cells
T2 sequence (P48065 1-614): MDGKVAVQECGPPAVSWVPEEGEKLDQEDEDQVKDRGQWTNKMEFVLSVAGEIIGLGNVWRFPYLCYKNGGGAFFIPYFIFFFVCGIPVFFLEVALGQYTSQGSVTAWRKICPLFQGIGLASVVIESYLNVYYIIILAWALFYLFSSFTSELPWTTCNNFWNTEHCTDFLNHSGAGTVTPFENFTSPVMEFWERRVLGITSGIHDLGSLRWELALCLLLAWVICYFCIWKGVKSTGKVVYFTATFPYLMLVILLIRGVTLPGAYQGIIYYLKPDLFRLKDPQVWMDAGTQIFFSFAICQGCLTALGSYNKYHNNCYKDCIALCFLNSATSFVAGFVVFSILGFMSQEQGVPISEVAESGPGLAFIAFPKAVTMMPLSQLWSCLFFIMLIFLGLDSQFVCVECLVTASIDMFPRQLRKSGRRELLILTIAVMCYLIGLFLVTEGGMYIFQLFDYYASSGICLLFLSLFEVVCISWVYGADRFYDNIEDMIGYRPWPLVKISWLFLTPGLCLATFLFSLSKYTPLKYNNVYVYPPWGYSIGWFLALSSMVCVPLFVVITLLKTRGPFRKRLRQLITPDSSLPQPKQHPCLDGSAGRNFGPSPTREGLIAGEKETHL
Procedure: (§1) Plasmids encoding hGAT-1, hBGT-1, hGAT-2, and hGAT-3 were transfected into tsA201 cells. The next day tsA201 cells transiently expressing each of the 4 GABA transporter subtypes were plated followed by (36 to 48 hours later) addition of [3H]GABA (30 nM) and CPP-115 (1 mM). Uptake of [3H]GABA was determined after incubation at 37° C. for 3 minutes.

hGAT-1 = target: T3, hGAT-1 (Homo sapiens, UniProt P30531); assay: [3H]GABA uptake in transfected tsA201 cells; assay type: cell-based; settings: hGAT-1, 37° C., 3 minutes
T3 construct: expressed in transfected cells; host or cells: tsA201 cells
T3 sequence (P30531 whole entry): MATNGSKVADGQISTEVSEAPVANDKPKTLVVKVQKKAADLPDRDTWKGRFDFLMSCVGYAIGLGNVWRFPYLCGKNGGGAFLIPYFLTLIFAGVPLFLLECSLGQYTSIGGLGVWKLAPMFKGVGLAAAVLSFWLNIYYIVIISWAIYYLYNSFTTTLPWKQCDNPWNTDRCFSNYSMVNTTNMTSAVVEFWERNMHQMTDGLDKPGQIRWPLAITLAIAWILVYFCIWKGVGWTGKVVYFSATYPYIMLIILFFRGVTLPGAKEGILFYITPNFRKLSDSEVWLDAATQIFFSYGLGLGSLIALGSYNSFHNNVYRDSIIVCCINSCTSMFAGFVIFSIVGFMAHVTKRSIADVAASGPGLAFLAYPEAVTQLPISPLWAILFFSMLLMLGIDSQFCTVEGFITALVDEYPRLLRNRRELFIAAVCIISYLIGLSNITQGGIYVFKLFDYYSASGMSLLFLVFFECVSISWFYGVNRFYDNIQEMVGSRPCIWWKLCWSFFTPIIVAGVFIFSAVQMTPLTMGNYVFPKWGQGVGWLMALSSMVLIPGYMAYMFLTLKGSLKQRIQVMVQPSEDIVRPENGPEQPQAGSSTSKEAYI
Procedure: as §1

hGAT-2 = target: T4, hGAT-2 (Homo sapiens, UniProt Q9NSD5); assay: [3H]GABA uptake in transfected tsA201 cells; assay type: cell-based; settings: hGAT-2, 37° C., 3 minutes
T4 construct: expressed in transfected cells; host or cells: tsA201 cells
T4 sequence (Q9NSD5 1-602): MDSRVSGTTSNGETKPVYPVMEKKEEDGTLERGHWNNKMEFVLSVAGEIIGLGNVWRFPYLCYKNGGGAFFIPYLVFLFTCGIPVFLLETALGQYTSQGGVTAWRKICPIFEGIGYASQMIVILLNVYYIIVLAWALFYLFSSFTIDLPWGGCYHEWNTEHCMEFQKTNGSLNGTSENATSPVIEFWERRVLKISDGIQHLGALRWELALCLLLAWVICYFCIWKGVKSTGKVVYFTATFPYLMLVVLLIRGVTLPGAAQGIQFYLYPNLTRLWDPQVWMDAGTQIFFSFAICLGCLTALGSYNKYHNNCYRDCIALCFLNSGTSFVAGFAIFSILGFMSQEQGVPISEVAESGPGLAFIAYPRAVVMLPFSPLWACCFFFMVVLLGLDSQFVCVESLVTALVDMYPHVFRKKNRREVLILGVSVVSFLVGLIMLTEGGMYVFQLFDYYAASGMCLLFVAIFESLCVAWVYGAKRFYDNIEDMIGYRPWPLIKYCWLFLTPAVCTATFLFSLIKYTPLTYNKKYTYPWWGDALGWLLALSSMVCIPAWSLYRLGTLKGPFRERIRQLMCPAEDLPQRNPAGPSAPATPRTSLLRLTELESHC
Procedure: as §1

hGAT-3 = target: T5, hGAT-3 (Homo sapiens, UniProt P48066); assay: [3H]GABA uptake in transfected tsA201 cells; assay type: cell-based; settings: hGAT-3, 37° C., 3 minutes
T5 construct: expressed in transfected cells; host or cells: tsA201 cells
T5 sequence (P48066 1-632): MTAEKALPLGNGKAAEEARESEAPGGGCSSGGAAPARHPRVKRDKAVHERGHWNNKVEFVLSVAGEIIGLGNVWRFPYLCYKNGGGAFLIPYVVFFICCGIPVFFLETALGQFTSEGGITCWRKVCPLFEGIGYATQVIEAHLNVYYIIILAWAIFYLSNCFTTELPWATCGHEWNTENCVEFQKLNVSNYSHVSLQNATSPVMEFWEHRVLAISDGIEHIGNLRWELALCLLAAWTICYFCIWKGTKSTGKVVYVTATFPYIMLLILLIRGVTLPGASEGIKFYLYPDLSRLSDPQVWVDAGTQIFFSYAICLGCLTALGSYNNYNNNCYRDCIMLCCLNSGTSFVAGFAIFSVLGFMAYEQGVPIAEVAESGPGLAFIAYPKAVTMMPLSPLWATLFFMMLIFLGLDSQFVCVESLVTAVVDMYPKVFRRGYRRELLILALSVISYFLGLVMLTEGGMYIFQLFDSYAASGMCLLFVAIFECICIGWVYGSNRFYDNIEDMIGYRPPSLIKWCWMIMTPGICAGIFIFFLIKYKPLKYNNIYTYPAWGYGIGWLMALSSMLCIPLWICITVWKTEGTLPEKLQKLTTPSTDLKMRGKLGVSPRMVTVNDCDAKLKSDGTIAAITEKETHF
Procedure: as §1

hERG potassium channel = hERG potassium channel (Homo sapiens, UniProt Q12809)
Chain of UniProt Q12809 (Q12809 whole entry): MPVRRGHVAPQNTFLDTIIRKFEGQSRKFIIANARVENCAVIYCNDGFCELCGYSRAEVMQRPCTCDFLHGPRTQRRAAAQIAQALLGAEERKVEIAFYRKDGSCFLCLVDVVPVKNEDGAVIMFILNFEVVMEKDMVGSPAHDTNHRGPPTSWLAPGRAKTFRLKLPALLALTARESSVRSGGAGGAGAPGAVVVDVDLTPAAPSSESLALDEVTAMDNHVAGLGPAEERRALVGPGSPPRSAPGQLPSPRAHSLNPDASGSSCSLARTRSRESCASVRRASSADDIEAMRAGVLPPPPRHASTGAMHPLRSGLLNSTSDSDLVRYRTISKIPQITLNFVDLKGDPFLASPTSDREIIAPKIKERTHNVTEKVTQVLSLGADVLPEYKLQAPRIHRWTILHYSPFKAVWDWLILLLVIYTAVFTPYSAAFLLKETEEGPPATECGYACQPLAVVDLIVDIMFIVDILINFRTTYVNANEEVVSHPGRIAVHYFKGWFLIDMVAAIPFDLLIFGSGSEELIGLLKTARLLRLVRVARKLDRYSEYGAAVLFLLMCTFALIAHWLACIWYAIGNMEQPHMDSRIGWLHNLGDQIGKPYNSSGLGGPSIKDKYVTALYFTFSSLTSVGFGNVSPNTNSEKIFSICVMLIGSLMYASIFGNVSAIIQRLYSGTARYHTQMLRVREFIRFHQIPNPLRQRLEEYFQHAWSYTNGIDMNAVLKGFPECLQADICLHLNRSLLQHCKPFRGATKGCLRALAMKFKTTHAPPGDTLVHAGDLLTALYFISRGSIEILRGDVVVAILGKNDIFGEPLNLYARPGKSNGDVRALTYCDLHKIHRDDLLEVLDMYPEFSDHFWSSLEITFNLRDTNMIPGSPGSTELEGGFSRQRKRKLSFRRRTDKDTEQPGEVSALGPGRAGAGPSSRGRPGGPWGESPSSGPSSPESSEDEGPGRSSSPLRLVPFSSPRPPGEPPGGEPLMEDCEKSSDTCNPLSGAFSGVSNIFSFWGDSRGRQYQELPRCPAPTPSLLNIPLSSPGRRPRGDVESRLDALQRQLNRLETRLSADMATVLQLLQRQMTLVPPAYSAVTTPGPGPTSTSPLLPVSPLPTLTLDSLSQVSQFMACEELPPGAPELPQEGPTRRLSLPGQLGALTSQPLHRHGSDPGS

[6] = dog, in vivo, po
[7] = Dose range finding (Part B), i.p. once daily up to 14 days

## N[C@H]1C[C@@H](C(=O)O)CC1=C(F)F [CPP-115, (1S,3S)-3-amino-4-difluoromethylenyl-1-cyclopentanoic acid]
[1]
  inhibition of / binding to OAT, in words: next best inhibitor of OAT
[2]
  OAT inactivation, time and concentration dependence: time- and concentration-dependent
  inhibition/inactivation of OAT: does inhibit/inactivate OAT
Glutamate decarboxylase
  inhibition of glutamate decarboxylase: does not inhibit
GABAB
  binding to GABAB: does not bind
[3]
  metabolism by hepatocytes: not metabolized by hepatocytes
[3]; 10 minutes, 1,000,000 cells/mL
  loss of CPP-115 during incubation: 6%
[3]; 240 minutes, 1,000,000 cells/mL
  loss of CPP-115 during incubation: 16%
Effect on respiration
  effect on respiration: no adverse effect on respiration
[4]; 300 mg/kg single i.p.
  outcome at the highest dose: euthanized in extremis
[4]; single i.p. administration
  dose levels with clinical findings: ≥ 75 mg/kg
[5]
  ONL nuclei counts and ONL thickness vs control group: no significant change
  cone receptor counts: no statistically significant change
hBGT-1
  IC50: > 1 mM
hGAT-1
  IC50: > 1 mM
hGAT-2
  IC50: > 1 mM
hGAT-3
  IC50: > 1 mM
hERG potassium channel
  binding to the hERG channel: does not bind
hERG potassium channel; 10 µM
  inhibition of hERG potassium current, mean: 1.1%
hERG potassium channel; 300 µM
  inhibition of hERG potassium current, mean: 1.5%
Cytochrome P450s
  inhibition or induction of cytochrome P450s: does not inhibit or induce
[6]
  increase in mean Cmax and AUC0-24 with dose: generally dose proportional
[7]; 10 mg/kg i.p. once daily
  clinical findings: No dose-related clinical findings
[7]; i.p. once daily for 14 days
  tolerated daily repeat dosing level: up to 20 mg/kg
[7]; repeated i.p. dosing
  doses with cumulative effect (weight loss, unkempt appearance, apathy, unconsciousness): ≥ 30 mg/kg

Where two headings read alike, the source gives them in different places.
